Experimental data as given in PubChem BioAssay AID540267 (National Center for Advancing Translational Sciences (NCATS), 2011).
Among all 340,000 compounds or so, about 530 (0.16%) were called active. Inconclusive results, whose numbers are uncertain, are shown with a selection of clear calls. Rule as the data show it: active = activity change below about -80%; inconclusive = between about -30% and that limit; inactive = weaker than that.

Experiment: Small Molecules that selectively kill Giardia lamblia: qHTS;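 also: parasites exposed to compound for two days anaerobically before the ATP read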
Details: Giardia lamblia trophozoite viability; at 7.66 µM; active compounds read low
Excerpt: Giardia lamblia is a human pathogen afflicting impoverished nations, and the most common cause of outbreaks of diarrhea in the United States. Giardia has been classified by the CDC as a category B bioterrorism organism. The favored anti giardiasis drugs in the US are metronidazole or tinidazole, compounds that have undesirable side effects. Moreover, increasing resistance to drug regimes and recurrence are a concern. It is thus clear that alternative drug treatments are needed.
In a collaboration between the University of Maryland, College Park and the NIH Chemical Genomics Center, a bioluminescence Giardia viability assay based on the trophozoites' ATP content was developed. This assay is suitable for high throughput screening, and miniaturized the assay for compound screening in 1536-well plates. The goal of the project is to screen the Molecular Libraries Small Molecule Repository (MLSMR) for compounds that selectively kill Giardia trophozoites.
NIH Chemical Genomics Center [NCGC]
NIH Molecular Libraries Probe Centers Network [MLPCN]
Assay Submitter (PI): Osnat Herzberg, University of Maryland, College Park, MD.
1. Dispense 2 ul/well media
2. Dispense 23 nl/well compounds
3. Dispense 4 ul/well Giardia trophozoites at a concentration of 100 cells/well
4. Incubate 48 hrs at 37 deg C anaerobically
5. Dispense 4 ul/well ATPLite 1-Step Luminescence assay kit
6. Incubate 15-30 min at room temperature
7. Read luminescence signal on ViewLux plate reader
% is scaled to controls: 0 for no effect and ±100 for the full control effect.

Compound	activity change
COc1ccc(C(=O)Nn2c(SCC(=O)N3CCC(C)CC3)nc3ccccc3c2=O)cc1	inconclusive: -39.4% [inhibitor]
CC(C)c1ccc(S(=O)(=O)/N=C2\C=C(NS(=O)(=O)c3ccccc3)C(=O)c3ccccc32)cc1	inactive: -6.15%
N#Cc1c(-c2ccc(Cl)cc2)cc(-c2cccs2)nc1SCC(=O)O	inactive: -6.94%
Cc1ccc(NC(=O)c2ccco2)c(NC(=O)c2ccccc2)c1	inactive: 0.0258%
CCn1ncc(Br)c1C(=O)Nc1ccc(OC(F)(F)F)cc1	inactive: 31.6%
CCOc1ccc(NC(=O)c2ccco2)cc1	inconclusive: -34.1% [inhibitor]
CCCCN1C(=O)c2ccc(C(=O)NCc3ccco3)cc2C1=O	inconclusive: -34% [inhibitor]
O=C(Nc1ccc(Cl)cn1)c1ccccc1[N+](=O)[O-]	inconclusive: -51.4% [inhibitor]
Cc1cc(O)c(C(C)C)cc1NS(=O)(=O)c1ccccc1	inconclusive: -32.5% [inhibitor]
CCOC(=O)C1(Cc2cccc(Cl)c2)CCCN(C(=O)CCSC)C1 (stereo not drawn)	inactive: 5.34%
Cc1cccc(-c2cc3c(N=O)c4ccccc4c-3n[nH]2)c1	inconclusive: -30.2% [inhibitor]
Cc1ncc([N+](=O)[O-])n1CC(C)O (stereo not drawn)	inconclusive: -44.4% [inhibitor]
CC(C)(C)n1nc2c(c1NC(=O)c1ccc(F)c(F)c1)CS(=O)(=O)C2	inactive: -1.26%
Cc1cccc2nc(-c3cccc(NC(=O)Cc4ccccc4)c3)cn12	inconclusive: -30.9% [inhibitor]
CCCCOc1cccc(OCC(=O)Nc2nc3ccccc3[nH]2)c1	inactive: 0.941%
NS(=O)(=O)c1ccc(CCNC(=O)C2CCN(c3ncnc4c3nc3n4CCCCC3)CC2)cc1	inactive: -1.4%
COc1ccc(S(=O)(=O)Nc2nccs2)cc1OC	inconclusive: -39.2% [inhibitor]
CC(C)CC(=O)n1sc(NC(=O)c2ccccc2)nc1=O	inconclusive: -36.3% [inhibitor]
COc1ccc(CCc2ccc3ccccc3n2)cc1	inconclusive: -32.2% [inhibitor]

Compound	activity change
CCN(CC)CCCNc1nc2ccccc2c2[nH]c3ccc(OC)cc3c12	active: -84.2%
COc1ccc(-c2csc3nc(C)nc(N4CCN(c5ccc(C(C)=O)cc5)CC4)c23)cc1OC	inconclusive: -42% [inhibitor]
CC1(C)CC(=O)C(C=Nc2ccc(NC3=C(C#N)C(=O)CC(C)(C)C3)cc2)=C(O)C1	inconclusive: -34% [inhibitor]
O=C(O)c1ccc(/C=C/C(=O)c2ccc3c(c2)OCCCO3)cc1	inconclusive: -37.8% [inhibitor]
Cc1ccc(-c2nc3ccccc3[nH]2)s1	inconclusive: -32.3% [inhibitor]
COc1ccc(-n2c(CN3CCN(Cc4ccccc4)CC3)nc3ccc([N+](=O)[O-])cc3c2=O)c(OC)c1	inactive: 8.33%
Cc1cc(C)n(CC(=O)N/N=C/c2ccc([N+](=O)[O-])s2)n1	inconclusive: -44.4% [inhibitor]
CCCCCC(=O)Nc1cccc(C2=NOC3(C2)C[C@@H](C(N)=O)N(C(=O)c2ccc(Cl)cc2)C3)c1 (stereo partly drawn)	inconclusive: -32% [inhibitor]
CCOc1ccc(NC(=O)Cc2ccc(S(=O)(=O)N3CCOCC3)s2)cc1OCC	inconclusive: -39% [inhibitor]
O/C(=C\c1ccc2ccccc2n1)c1ccc(O)cc1O	inconclusive: -34.8% [inhibitor]
CN1CCN(C(=O)NCC23CC4CC(CC(C4)C2)C3)CC1	inconclusive: -41.3% [inhibitor]
CCOC(=O)c1c(NC(=O)CS(=O)(=O)c2cn(CC)c3ccccc23)sc2c1CCCCC2	inconclusive: -49.6% [inhibitor]
N#C/C(=C\c1ccccc1[N+](=O)[O-])C(=O)NC1CCCCC1	inconclusive: -39.8% [inhibitor]
CCOC(=O)c1sc(-c2cccc(C(F)(F)F)c2)nc1O	inactive: -27%
NC(=O)c1nsc(C(=O)N(Cc2ccccc2Cl)C(C(=O)NCC2CCCO2)c2ccc(O)cc2)c1N (stereo not drawn)	inconclusive: -31.4% [inhibitor]
Cc1cc(=O)oc2c3c(cc(OCC(=O)Nc4ccc(CCO)cc4)c12)OC(C)(C)CC3	inconclusive: -32.7% [inhibitor]
Cc1nc2cc(NC(=O)N3c4ccccc4CC3C)ccc2n1C (stereo not drawn)	inconclusive: -47.7% [inhibitor]
O=C(NCc1ccco1)c1ccc(-c2ccc(Cl)cc2)o1	inconclusive: -30.8% [inhibitor]
Cc1cccc(N(CC(=O)N2CCc3ccccc3C2)S(C)(=O)=O)c1C	inconclusive: -31.7% [inhibitor]
